This is one part of the list. The list includes weakly bound sequences.
Each sequence was assayed against T1, MBP-FoxP3dN (UniProt Q99JB6) (assay: PD-seq (MBP pull-down with sequencing)). Settings: 20 mM Tris-HCl pH 7.5, 100 mM NaCl, 1.5 mM MgCl2, 0.4 uM protein, 0.1 uM dsDNA library, 30 min, room temperature, amylose pull-down; high values mean tight binding; double strand, one strand shown.
T1 sequence: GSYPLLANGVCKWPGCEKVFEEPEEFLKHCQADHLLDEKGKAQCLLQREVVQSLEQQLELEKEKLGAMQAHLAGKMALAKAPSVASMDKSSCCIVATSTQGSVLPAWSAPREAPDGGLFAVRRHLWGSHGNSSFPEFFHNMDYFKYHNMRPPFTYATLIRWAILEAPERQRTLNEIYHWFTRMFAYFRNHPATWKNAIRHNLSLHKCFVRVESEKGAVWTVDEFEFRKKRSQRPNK
“GATGATTGTTCTCCCAGCTGATGAATTTATGACATCGAGTAAACAAATTTTCCTAATCTTTCTGTTCAAGCGCCATCTAC” gave a binding signal (RPM ratio (pull-down/input)) of 0.882. Sequence “GATGATTGTTCTCCCAGCTGATGAATTATGGGGCTCGAGTAAACAAATTTTCCTAATCTTTCTGTTCAAGCGCCATCTAC” has a binding signal (RPM ratio (pull-down/input)) of 0.439. “GATGATTGTTCTCCCAGCTGATGAATTTTGTAAGTCGAGTAAACAAATTTTCCTAATCTTTCTGTTCAAGCGCCATCTAC” gave a binding signal (RPM ratio (pull-down/input)) of 1.71. In the case of “GATGATTGTTCTCCCAGCTGATGAATTCAAAGAGTCGAGTAAACAAATTTTCCTAATCTTTCTGTTCAAGCGCCATCTAC”, the binding signal (RPM ratio (pull-down/input)) is reported as 0.196. Work on “GATGATTGTTCTCCCAGCTGATGAATTTGCGAGCTCGAGTAAACAAATTTTCCTAATCTTTCTGTTCAAGCGCCATCTAC” yielded a binding signal (RPM ratio (pull-down/input)) of 0.663. “GATGATTGTTCTCCCAGCTGATGAATTCCAAACTTCGAGTAAACAAATTTTCCTAATCTTTCTGTTCAAGCGCCATCTAC” was tested, and the binding signal (RPM ratio (pull-down/input)) was 0.292. With “GATGATTGTTCTCCCAGCTGATGAATTGGCTGTTTCGAGTAAACAAATTTTCCTAATCTTTCTGTTCAAGCGCCATCTAC” the binding signal (RPM ratio (pull-down/input)) was 1.71. Work on “GATGATTGTTCTCCCAGCTGATGAATTAGAGACATCGAGTAAACAAATTTTCCTAATCTTTCTGTTCAAGCGCCATCTAC” yielded a binding signal (RPM ratio (pull-down/input)) of 0.458. With “GATGATTGTTCTCCCAGCTGATGAATTGGTTCGATCGAGTAAACAAATTTTCCTAATCTTTCTGTTCAAGCGCCATCTAC” the binding signal (RPM ratio (pull-down/input)) was 0.258. “GATGATTGTTCTCCCAGCTGATGAATTGTTCGAGTCGAGTAAACAAATTTTCCTAATCTTTCTGTTCAAGCGCCATCTAC” showed a binding signal (RPM ratio (pull-down/input)) of 0.354. Work on “GATGATTGTTCTCCCAGCTGATGAATTGGGTTTATCGAGTAAACAAATTTTCCTAATCTTTCTGTTCAAGCGCCATCTAC” yielded a binding signal (RPM ratio (pull-down/input)) of 2.06. “GATGATTGTTCTCCCAGCTGATGAATTCCCTTCTTCGAGTAAACAAATTTTCCTAATCTTTCTGTTCAAGCGCCATCTAC” showed a binding signal (RPM ratio (pull-down/input)) of 0.278. In the case of “GATGATTGTTCTCCCAGCTGATGAATTGTCTCACTCGAGTAAACAAATTTTCCTAATCTTTCTGTTCAAGCGCCATCTAC”, the binding signal (RPM ratio (pull-down/input)) is reported as 0.421. “GATGATTGTTCTCCCAGCTGATGAATTGATTGGTTCGAGTAAACAAATTTTCCTAATCTTTCTGTTCAAGCGCCATCTAC” was tested, and the binding signal (RPM ratio (pull-down/input)) was 2.6. With “GATGATTGTTCTCCCAGCTGATGAATTTAGGAATTCGAGTAAACAAATTTTCCTAATCTTTCTGTTCAAGCGCCATCTAC” the binding signal (RPM ratio (pull-down/input)) was 0.763. Sequence “GATGATTGTTCTCCCAGCTGATGAATTCGTGTAATCGAGTAAACAAATTTTCCTAATCTTTCTGTTCAAGCGCCATCTAC” has a binding signal (RPM ratio (pull-down/input)) of 1.04. For “GATGATTGTTCTCCCAGCTGATGAATTTGTCGAGTCGAGTAAACAAATTTTCCTAATCTTTCTGTTCAAGCGCCATCTAC”, the binding signal (RPM ratio (pull-down/input)) was 1.08. Work on “GATGATTGTTCTCCCAGCTGATGAATTCTCATGCTCGAGTAAACAAATTTTCCTAATCTTTCTGTTCAAGCGCCATCTAC” yielded a binding signal (RPM ratio (pull-down/input)) of 0.369. For “GATGATTGTTCTCCCAGCTGATGAATTAGCATTGTCGAGTAAACAAATTTTCCTAATCTTTCTGTTCAAGCGCCATCTAC”, the binding signal (RPM ratio (pull-down/input)) was 3.44. Sequence “GATGATTGTTCTCCCAGCTGATGAATTGCGTCTGTCGAGTAAACAAATTTTCCTAATCTTTCTGTTCAAGCGCCATCTAC” has a binding signal (RPM ratio (pull-down/input)) of 1.19. Sequence “GATGATTGTTCTCCCAGCTGATGAATTCCAGACCTCGAGTAAACAAATTTTCCTAATCTTTCTGTTCAAGCGCCATCTAC” has a binding signal (RPM ratio (pull-down/input)) of 0.198. For “GATGATTGTTCTCCCAGCTGATGAATTGCATAGATCGAGTAAACAAATTTTCCTAATCTTTCTGTTCAAGCGCCATCTAC”, the binding signal (RPM ratio (pull-down/input)) was 0.657. “GATGATTGTTCTCCCAGCTGATGAATTGGGCAACTCGAGTAAACAAATTTTCCTAATCTTTCTGTTCAAGCGCCATCTAC” gave a binding signal (RPM ratio (pull-down/input)) of 4.1. “GATGATTGTTCTCCCAGCTGATGAATTGGATCAGTCGAGTAAACAAATTTTCCTAATCTTTCTGTTCAAGCGCCATCTAC” was tested, and the binding signal (RPM ratio (pull-down/input)) was 0.229. “GATGATTGTTCTCCCAGCTGATGAATTTACATCCTCGAGTAAACAAATTTTCCTAATCTTTCTGTTCAAGCGCCATCTAC” showed a binding signal (RPM ratio (pull-down/input)) of 0.723. Sequence “GATGATTGTTCTCCCAGCTGATGAATTATAGTAGTCGAGTAAACAAATTTTCCTAATCTTTCTGTTCAAGCGCCATCTAC” has a binding signal (RPM ratio (pull-down/input)) of 0.584. With “GATGATTGTTCTCCCAGCTGATGAATTGTGGTCATCGAGTAAACAAATTTTCCTAATCTTTCTGTTCAAGCGCCATCTAC” the binding signal (RPM ratio (pull-down/input)) was 1.14. In the case of “GATGATTGTTCTCCCAGCTGATGAATTTGACTAGTCGAGTAAACAAATTTTCCTAATCTTTCTGTTCAAGCGCCATCTAC”, the binding signal (RPM ratio (pull-down/input)) is reported as 0.36. In the case of “GATGATTGTTCTCCCAGCTGATGAATTTAAACTATCGAGTAAACAAATTTTCCTAATCTTTCTGTTCAAGCGCCATCTAC”, the binding signal (RPM ratio (pull-down/input)) is reported as 0.454. In the case of “GATGATTGTTCTCCCAGCTGATGAATTCTCGAACTCGAGTAAACAAATTTTCCTAATCTTTCTGTTCAAGCGCCATCTAC”, the binding signal (RPM ratio (pull-down/input)) is reported as 0.193. “GATGATTGTTCTCCCAGCTGATGAATTCCTGCGATCGAGTAAACAAATTTTCCTAATCTTTCTGTTCAAGCGCCATCTAC” showed a binding signal (RPM ratio (pull-down/input)) of 0.443. With “GATGATTGTTCTCCCAGCTGATGAATTTATGCTCTCGAGTAAACAAATTTTCCTAATCTTTCTGTTCAAGCGCCATCTAC” the binding signal (RPM ratio (pull-down/input)) was 1.54. Sequence “GATGATTGTTCTCCCAGCTGATGAATTTTAGAGATCGAGTAAACAAATTTTCCTAATCTTTCTGTTCAAGCGCCATCTAC” has a binding signal (RPM ratio (pull-down/input)) of 0.22. For “GATGATTGTTCTCCCAGCTGATGAATTTTGGATCTCGAGTAAACAAATTTTCCTAATCTTTCTGTTCAAGCGCCATCTAC”, the binding signal (RPM ratio (pull-down/input)) was 0.327. Work on “GATGATTGTTCTCCCAGCTGATGAATTGTACTGTTCGAGTAAACAAATTTTCCTAATCTTTCTGTTCAAGCGCCATCTAC” yielded a binding signal (RPM ratio (pull-down/input)) of 0.855. Work on “GATGATTGTTCTCCCAGCTGATGAATTCAGAAGGTCGAGTAAACAAATTTTCCTAATCTTTCTGTTCAAGCGCCATCTAC” yielded a binding signal (RPM ratio (pull-down/input)) of 0.187. “GATGATTGTTCTCCCAGCTGATGAATTCCTAAGTTCGAGTAAACAAATTTTCCTAATCTTTCTGTTCAAGCGCCATCTAC” was tested, and the binding signal (RPM ratio (pull-down/input)) was 0.254. “GATGATTGTTCTCCCAGCTGATGAATTTTCCCCCTCGAGTAAACAAATTTTCCTAATCTTTCTGTTCAAGCGCCATCTAC” showed a binding signal (RPM ratio (pull-down/input)) of 0.157. With “GATGATTGTTCTCCCAGCTGATGAATTTCACGCATCGAGTAAACAAATTTTCCTAATCTTTCTGTTCAAGCGCCATCTAC” the binding signal (RPM ratio (pull-down/input)) was 1.01. Sequence “GATGATTGTTCTCCCAGCTGATGAATTGCACGAGTCGAGTAAACAAATTTTCCTAATCTTTCTGTTCAAGCGCCATCTAC” has a binding signal (RPM ratio (pull-down/input)) of 0.517.

— PMC12820563
